In a collection of fitness landscapes (doi:10.1126/science.1257360):
The list shows a part of the results.

B1: PhoQ; a variant is named by its letters at X, in order, P23837 (parent)
chain: MKKLLRLFFPLSLRVRFLLATAAVVLVLSLAYGMVALIGYSVSFDKTTFRLLRGESNLFYTLAKWENNKLHVELPENIDKQSPTMTLIYDENGQLLWAQRDVPWLMKMIQPDWLKSNGFHEIEADVNDTSLLLSGDHSIQQQLQEVREDDDDAEMTHSVAVNVYPATSRMPKLTIVVVDTIPVELKSSYMVWSWFIYVLSANLLLVIPLLWVAAWWSLRPIEALAKEVRELEEHNRELLNPATTRELTSLVRNLNRLLKSERERYDKYRTTLTDLTHSLKTPLXXLQXXLRSLRSEKMSVSDAEPVMLEQISRISQQIGYYLHRASMRGGTLLSRELHPVAPLLDNLTSALNKVYQRKGVNISLDISPEISFVGEQNDFVEVMGNVLDNACKYCLEFVEISARQTDEHLYIVVEDDGPGIPLSKREVIFDRGQRVDTLRPGQGVGLAVAREITEQYEGKIVAGESMLGGARMEVIFGRQHSAPKDE

Variants of: B1
Assay: enrichment ratio after two sorts for PhoP signalling (ratio (wild type AVST 3.29)); higher = more functional
Conditions: with PhoP (E. coli)

Variant	enrichment ratio
QMVC	≤ 0.25
PGTE	≤ 0.25
LKDQ	≤ 0.25
HIFD	≤ 0.25
HLMA	≤ 0.25
HVVW	≤ 0.25
SCRV	≤ 0.25
SIQD	4.03
FWAH	≤ 0.25
PPLD	≤ 0.25
PNNQ	≤ 0.25
LIWF	≤ 0.25
RMLI	≤ 0.25
VLWN	≤ 0.25
NNVT	≤ 0.25
HFRF	≤ 0.25
DKNF	≤ 0.25
KLVV	≤ 0.25
NINT	≤ 0.25
LVQN	≤ 0.25
VFLM	≤ 0.25

Variant	enrichment ratio
NHIA	≤ 0.25
YFKI	≤ 0.25
WFYD	≤ 0.25
GVIN	≤ 0.25
TMLK	≤ 0.25
QYKN	≤ 0.25
SYMD	≤ 0.25
PWKP	≤ 0.25
PSKN	≤ 0.25
WHVQ	≤ 0.25
VEHR	≤ 0.25
HDER	≤ 0.25
NPWE	≤ 0.25
REQH	≤ 0.25
STWI	≤ 0.25
KGVG	≤ 0.25
RWAR	≤ 0.25
HKTG	≤ 0.25
NKGN	≤ 0.25
YVCP	≤ 0.25
PNGH	≤ 0.25

Variant	enrichment ratio
NHAS	≤ 0.25
SNQC	1.09
KGNM	≤ 0.25
HKNN	≤ 0.25
YNLN	≤ 0.25
QFHD	≤ 0.25
YMYS	≤ 0.25
PIKC	≤ 0.25
PAEH	≤ 0.25
EPIP	≤ 0.25
YQCN	0.346
PREK	≤ 0.25
MQQG	≤ 0.25
LQVA	≤ 0.25
FMWW	≤ 0.25
AQDT	≤ 0.25
YRIY	≤ 0.25
SRIK	≤ 0.25
SAIE	≤ 0.25
RDWP	≤ 0.25
ATIN	11.9

Variant	enrichment ratio
WCLY	≤ 0.25
TIWG	≤ 0.25
YISH	0.528
MMHG	≤ 0.25
PYGI	≤ 0.25
WHGY	≤ 0.25
DGTL	≤ 0.25
AEGY	43.4
WQPF	≤ 0.25
TYWT	≤ 0.25
LFWL	≤ 0.25
NSAD	≤ 0.25
NDAY	≤ 0.25
SSVM	17.6
DYGG	≤ 0.25
NPSQ	≤ 0.25
GSNS	≤ 0.25
LIVG	≤ 0.25
AFRY	≤ 0.25
MDQT	≤ 0.25
HMSS	≤ 0.25
